In PMC3974872:
Numbering of substitutions follows the chain as printed. No constants are given. Whether binding was seen depends on the method and setting. Binding seen in cells or lysates may run through a third protein. Some binding calls cover weakened binding; strength is not graded here. Tags and fused reporters may be left off the sequences shown.

The chains behind the UniProt entries cited, without tags or fusion partners.
UniProt Q16531: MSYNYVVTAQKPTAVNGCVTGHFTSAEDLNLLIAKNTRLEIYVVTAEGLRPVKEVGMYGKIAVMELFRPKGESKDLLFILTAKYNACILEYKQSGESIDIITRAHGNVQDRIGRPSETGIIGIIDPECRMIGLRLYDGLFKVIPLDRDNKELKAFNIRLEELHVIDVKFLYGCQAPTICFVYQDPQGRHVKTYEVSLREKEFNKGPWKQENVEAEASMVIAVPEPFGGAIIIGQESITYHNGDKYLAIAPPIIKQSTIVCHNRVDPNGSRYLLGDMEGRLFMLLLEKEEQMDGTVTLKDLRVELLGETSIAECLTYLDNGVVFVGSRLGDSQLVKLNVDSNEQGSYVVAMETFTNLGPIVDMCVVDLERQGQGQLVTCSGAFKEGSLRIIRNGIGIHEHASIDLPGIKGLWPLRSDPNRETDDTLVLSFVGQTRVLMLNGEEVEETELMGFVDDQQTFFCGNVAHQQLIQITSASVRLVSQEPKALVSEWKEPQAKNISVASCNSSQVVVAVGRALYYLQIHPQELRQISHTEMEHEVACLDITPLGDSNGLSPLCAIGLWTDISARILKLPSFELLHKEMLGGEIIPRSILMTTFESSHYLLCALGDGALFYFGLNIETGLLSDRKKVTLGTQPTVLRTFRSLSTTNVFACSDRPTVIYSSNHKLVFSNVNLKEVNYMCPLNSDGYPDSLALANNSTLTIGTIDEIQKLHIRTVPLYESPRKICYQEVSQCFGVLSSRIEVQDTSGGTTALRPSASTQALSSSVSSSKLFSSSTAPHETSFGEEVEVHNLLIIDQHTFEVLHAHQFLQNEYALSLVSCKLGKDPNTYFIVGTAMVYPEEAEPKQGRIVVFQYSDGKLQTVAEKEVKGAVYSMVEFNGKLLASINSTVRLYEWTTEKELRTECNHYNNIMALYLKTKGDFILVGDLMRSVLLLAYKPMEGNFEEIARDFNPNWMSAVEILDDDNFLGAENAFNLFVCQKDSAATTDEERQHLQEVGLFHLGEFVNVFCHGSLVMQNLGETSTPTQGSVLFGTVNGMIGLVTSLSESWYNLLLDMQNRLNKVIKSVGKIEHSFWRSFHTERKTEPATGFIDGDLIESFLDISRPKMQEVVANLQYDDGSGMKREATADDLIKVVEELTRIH
UniProt P12004: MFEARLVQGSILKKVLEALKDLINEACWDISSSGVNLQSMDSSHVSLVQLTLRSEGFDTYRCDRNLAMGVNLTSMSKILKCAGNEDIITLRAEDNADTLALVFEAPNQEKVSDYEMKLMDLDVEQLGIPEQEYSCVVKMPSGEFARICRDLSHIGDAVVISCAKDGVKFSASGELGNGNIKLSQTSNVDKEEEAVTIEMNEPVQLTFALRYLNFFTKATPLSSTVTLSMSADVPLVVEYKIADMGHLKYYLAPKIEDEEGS

Legend:
[1] = molecular target: T1, FLAG-tagged wild-type murine p21 (p21^WT) (murine) (UniProt P39689); experiment: co-IP; FLAG-tagged p21 precipitated with FLAG beads from lysates of transfected 293T cells harvested at 48 hr; blots for endogenous proteins
T1 sequence: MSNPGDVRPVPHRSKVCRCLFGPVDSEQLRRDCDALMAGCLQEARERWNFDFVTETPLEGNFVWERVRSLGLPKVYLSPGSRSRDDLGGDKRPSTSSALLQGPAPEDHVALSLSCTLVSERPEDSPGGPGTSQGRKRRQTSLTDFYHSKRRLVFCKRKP

[2] = molecular target: T2, FLAG-tagged murine p21^Δdegron (murine) (UniProt P39689); experiment: as above
T2 sequence: T1 sequence with K149A, R150A, R151A

[3] = molecular target: T3, HA-tagged wild-type murine p21 (p21^WT) (murine) (UniProt P39689); experiment: co-IP; HA-tagged p21 precipitated with HA antibodies from lysates of transfected 293T cells at 48 hr; blot for endogenous PCNA
T3 sequence: T1 sequence

[4] = molecular target: T1, FLAG-tagged wild-type murine p21 (p21^WT) (murine); experiment: co-IP; FLAG-tagged p21 precipitated from transfected 293T cells treated with wild-type or scrambled p21 peptide (25 µM); blot for endogenous PCNA

Row | binding [1] | binding [2] | binding [3] | binding [4] | Substance
1 | binds | no binding | – | – | DDB1 (from UniProt Q16531 1-1140)
2 | binds | – | binds | binds | PCNA (from UniProt P12004 1-261)
